Data reported in PubChem BioAssay AID1030 (National Center for Advancing Translational Sciences (NCATS), 2008).
The whole screen tested about 220,000 compounds, of which about 16,000 (7.3%) were called active. This list was built around the results that the source calls inconclusive (neither active nor inactive); the mix of calls is not that of the screen. Calls come from the whole dose curve; as a rule, active = well fitted inhibition curve with a large enough effect (not every such curve was filed as active); inconclusive = small, poorly fitted or top-dose-only effect, or another doubt; inactive = no such curve, though single readings can be large or run the other way. Potencies beside an inconclusive call are fits to weak or partial responses and may not hold up.

Target: Aldehyde dehydrogenase 1A1 (Homo sapiens) (UniProt P00352)
Sequence of UniProt P00352 (P00352 whole entry, looked up): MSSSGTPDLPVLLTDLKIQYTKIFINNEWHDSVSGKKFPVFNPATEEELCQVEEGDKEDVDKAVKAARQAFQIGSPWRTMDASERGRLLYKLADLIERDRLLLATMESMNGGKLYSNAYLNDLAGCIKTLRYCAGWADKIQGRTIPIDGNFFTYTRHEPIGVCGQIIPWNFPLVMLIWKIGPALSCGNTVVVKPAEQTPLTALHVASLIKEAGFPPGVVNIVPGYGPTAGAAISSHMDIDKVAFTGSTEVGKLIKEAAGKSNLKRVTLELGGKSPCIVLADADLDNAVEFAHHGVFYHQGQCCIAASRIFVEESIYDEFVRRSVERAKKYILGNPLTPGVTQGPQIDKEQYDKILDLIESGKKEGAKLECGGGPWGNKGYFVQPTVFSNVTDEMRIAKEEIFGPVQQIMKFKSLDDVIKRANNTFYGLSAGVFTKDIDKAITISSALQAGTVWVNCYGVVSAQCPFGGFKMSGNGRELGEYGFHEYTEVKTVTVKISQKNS
Assay: qHTS Assay for Inhibitors of Aldehyde Dehydrogenase 1 (ALDH1A1);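 for activity, negative = inhibition: plate controls were no enzyme wells and a reference inhibitor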
Conditions: Purified ALDH1A1, NADH fluorescence, propionaldehyde substrate; series mostly up to 75.3 µM; activity, negative = inhibition: at the top concentration
Potency is the fitted concentration of half-maximal effect; tags give direction and shape of the fitted curve.

Potency, inconclusive:
CCN(CC(=O)Nc1ccc2c(c1)OCCO2)CC(=O)Nc1cc(C)on1 37.7 µM [inhibitor, single point]
COc1ccc(/C=N/NC(=O)c2[nH]nc3c2CCc2ccccc2-3)cc1OC 35.5 µM [inhibitor, single point]
CC(C)=C(NC(=O)c1ccccc1)C(=O)N/N=C/c1ccc(O)cc1 22.4 µM [inhibitor, partial curve]
CSc1nnc2c3c4c(sc3nc(-n3nc(C)cc3C)n12)COC(C)(C)C4 37.7 µM [inhibitor, single point]
O=C(OC(C(=O)Nc1cc(Cl)cc(Cl)c1)c1ccccc1)C1=COCCO1 (configuration not stated) 39.8 µM [inhibitor, single point]
CCN(CC)CCCn1c(=S)[nH]c2ncccc2c1=O 44.7 µM [inhibitor, single point]
CC(C)(C)NS(=O)(=O)c1ccc(CCC(=O)Nc2cc(Cl)ccc2Oc2ccccc2)cc1 28.2 µM [inhibitor, single point]
Cc1c(C)c2cc(Cl)c(O)c(CN3CCCCC3)c2oc1=O 14.1 µM [inhibitor, partial curve]
O=C(CSc1ccc(F)cc1)NCCSc1ccccc1 25.1 µM [inhibitor, single point]
CC(=O)Nc1nonc1-c1nc2ccccc2n1Cc1nnc(C)o1 39.8 µM [inhibitor, single point]
COC(=O)c1ccc(-c2noc(CN(C)Cc3ccncc3C)n2)cc1 31.6 µM [inhibitor, single point]
COc1cc(OC)cc(C(=O)OCC(=O)Nc2sccc2C(N)=O)c1 39.8 µM [inhibitor, single point]
NC(=O)CSc1oc(-c2cccs2)nc1S(=O)(=O)c1ccccc1 25.1 µM [inhibitor, single point]
CCOC(=O)c1sc(=S)n(Cc2ccccc2)c1C 25.1 µM [inhibitor, single point]
Cc1ccc(S(=O)(=O)N(C)CC(=O)Nc2nc3ccccc3s2)cc1 39.8 µM [inhibitor, single point]
Cc1ccc(NC(=S)NC(=O)/C=C/c2ccco2)c(O)c1 39.8 µM [inhibitor, single point]
O=C(CSc1nc2ccccc2c(=O)[nH]1)N1CCCCC1 22.4 µM [inhibitor, partial curve]
O=C(O)C12CC3CC(C1)CC(n1ncc(NCc4ccccc4)c(Cl)c1=O)(C3)C2 39.8 µM [inhibitor, single point]
CN(C)S(=O)(=O)c1cc(NC(=O)COC(=O)C2COc3ccccc3O2)ccc1Cl (configuration not stated) 39.8 µM [inhibitor, single point]
N#CC(c1cccc(Cl)c1)c1ccc2c(C(F)(F)F)cc(C(F)(F)F)nc2n1 (configuration not stated) 20 µM [inhibitor, single point]
CC(=O)Nc1ccc2c(CSc3nnc(-c4cccnc4)n3-c3ccc(C)cc3C)cc(=O)oc2c1 20 µM [inhibitor, partial curve]
COC(=O)c1ccc(C)c(NC(=O)CCc2ccc(OC)c(OC)c2)c1 39.8 µM [inhibitor, partial curve]
c1ccc2c(c1)nc(NCC1CCCO1)c1nnnn12 (configuration not stated) 28.2 µM [inhibitor, partial curve]
C/C=C(\C)c1nnc(NC(=O)OCC)s1 39.8 µM [inhibitor, single point]
Cc1cnc(C(=O)Nc2nnc(C(C)C)s2)cn1 22.4 µM [inhibitor, single point]
O=c1cc(N2CCCCC2)c(-c2ccccc2)nn1Cc1c(Cl)cccc1Cl 25.1 µM [inhibitor, partial curve]
CC1=C(C(=O)OCC2CCCO2)C(c2ccncc2)C2=C(CCCC2=O)N1 (configuration not stated) 35.5 µM [inhibitor, single point]
Cc1c(C(=O)N/N=C/c2ccc(N(C)C)cc2)[nH]c2ccc(Cl)cc12 35.5 µM [inhibitor, single point]
CCCCn1c(=N)n(CCOc2ccc(C)cc2)c2ccccc21 8.91 µM [inhibitor, single point]
CCS(=O)(=O)N1CCN(c2ccc([N+](=O)[O-])c(NCC3CCCO3)c2)CC1 (configuration not stated) 39.8 µM [inhibitor, single point]
COc1ccc([N+](=O)[O-])cc1NC(=S)Nc1ccccc1 39.8 µM [inhibitor, single point]
CCC(CC)c1nnc(NC(=O)c2cc(-c3ccccc3)nc3ccccc23)s1 35.5 µM [inhibitor, single point]
Cc1noc(C)c1-c1nccc(NCc2cccs2)n1 35.5 µM [inhibitor, single point]
CCCCC/C=C\C\C=C/C=C/C=C/[C@@H](SC[C@H](NC(=O)CC[C@H](N)C(=O)O)C(=O)NCC(=O)O)[C@@H](O)CCCC(=O)O 44.7 µM [inhibitor, single point]
COc1ccc(NC(=O)CSc2nnc(-c3ccccn3)n2N)cc1Cl 28.2 µM [inhibitor, single point]
COc1ccc(Cc2nnc(NS(=O)(=O)c3ccccc3)s2)cc1 39.8 µM [inhibitor, single point]
O=C(NCc1ccc(Cl)cc1)C1CCN(S(=O)(=O)c2ccccc2)CC1 28.2 µM [inhibitor, partial curve]
COc1ccc(C(=O)CSc2nnc(-c3cc4ccccc4cc3O)n2Cc2ccco2)cc1 15.8 µM [inhibitor, partial curve]
Cc1ccc(NC(=S)Nc2ccc(OC(F)F)c(Cl)c2)cc1Cl 37.7 µM [inhibitor, single point]
N=C1C(c2nc3ccccc3s2)=C(O)CN1Cc1ccccc1 31.6 µM [inhibitor, single point]
N#CC1=C(N)Oc2cc(N)ccc2C1C1CCCCC1 (configuration not stated) 39.8 µM [inhibitor, single point]
Cc1ccc(NC(=O)CN2C(=O)N/C(=C/c3ccc(N4CCOCC4)cc3)C2=O)cc1 22.4 µM [inhibitor, single point]

Potency, inactive:
COC(=O)[C@@H](NC(=O)O[C@@H]1C(=O)c2ccc(OC)cc2O[C@H]1c1cccc(C(F)(F)F)c1)C(C)C

Potency, active:
Cc1ccc(NC(=O)c2ccc3c(c2)C(=O)N(CC2CCCO2)C3=O)cc1C (configuration not stated) 3.16 µM
NC(=O)/N=N/C(N)=O 0.447 µM
CN(C)S(=O)(=O)N1CCN(c2ccc([N+](=O)[O-])c(N3CCCCC3)c2)CC1 3.98 µM
O=C(N/N=C/c1ccccn1)c1[nH]c2ccc([N+](=O)[O-])cc2c1-c1ccccc1 4.47 µM
O=C(NCCc1ccccc1)C1CCC(CNS(=O)(=O)c2cccs2)CC1 (configuration not stated) 3.98 µM
Cn1c(SCC(=O)N2CCOCC2)nnc1-c1cccc(NC(=O)c2ccccc2F)c1 25.1 µM
O=C(CSc1nc2cc(S(=O)(=O)N3CCOCC3)ccc2o1)Nc1c(F)cccc1F 3.98 µM
O=C(CCN1C(=O)C2C3C=CC(C3)C2C1=O)N1CCN(c2ccccc2Cl)CC1 (configuration not stated) 2 µM
O=C1C=CC(=O)N1c1ccc(Sc2ccc([N+](=O)[O-])cc2)cc1 0.794 µM
CCCC(c1nnnn1Cc1ccc(F)cc1)N1CCN(CC)CC1 (configuration not stated) 22.4 µM

activity, negative = inhibition, inactive:
Cc1ccc(OCC(=O)Nc2ccc([N+](=O)[O-])cc2)cc1 8.8%
Cc1ccc(P(=Nc2ccccc2)(N2CCOCC2)N2CCOCC2)o1 3.86%
CNc1ccnc(-c2c(C)noc2C)n1 -7.09%
FC(F)(F)c1cc(-c2ccccc2)nc(N2CCOCC2)n1 -0.695%
COc1ccc(CCN(C(=S)Nc2ccccc2)C2CC(=O)N(c3ccccc3)C2=O)cc1 (configuration not stated) 8.2%
Nn1c(Cc2ccccc2F)nnc1SCn1nnc2ccccc2c1=O -3.87%
Cc1ccc(-n2ncc(C(=O)Nc3cc(Cl)ccc3Cl)c2C2CCNCC2)cc1 4.83%
CCOc1ccccc1NC(=O)CN(C)S(=O)(=O)c1cnc[nH]1 3.83%
Cn1c(=O)c2c(ncn2Cc2ccc(Cl)cc2)n(C)c1=O 3.79%
O=C(CSCCO)Nc1nccs1 5.76%
Cc1c(C(=O)NN2CCN(C)CC2)cccc1[N+](=O)[O-] 4.33%
CCN(c1ccccc1)S(=O)(=O)c1ccc(Cl)c(NC(=O)CSc2ncn[nH]2)c1 -0.674%
O=c1[nH]n2c(=O)c3c([nH]c2c1N=Nc1cccc(Cl)c1)CCCC3 -1.8%
CCCn1c(SCC(=O)N2CCCCC2)nnc1-c1ccccn1 -3.29%
CN(C)/C=C1\SC(=S)N(N2C(=O)C3C4C=CC(C4)C3C2=O)C1=O (configuration not stated) 8.16%
COc1ccc(C(=O)NC(=S)Nc2ccc(S(N)(=O)=O)cc2)cc1 28.8%
C[C@@]1(C(NS(=O)(=O)c2cccc3cccnc23)c2ccc(-c3ccccc3)cc2)C[C@H]1C1CCCCC1 (some centres not stated) -3.1%
N#Cc1cccc(NC(=O)N2CC[C@@]3(CCCN(C(=O)c4csnn4)C3)C2)c1 7.67%
O=C(COc1ccc(Cl)cc1)Nc1ncc([N+](=O)[O-])s1 3.79%
